Values joined by “and” are separate entries in the source; they are usually repeats but may differ in a detail not shown here. Identical values can stand only once. Among all 110,000 compounds or so, about 230 (0.21%) showed an effect of 50% or more. The list shows a part of the results.

Results on 99 compounds are retold here after PMC6919601, “Identification of Plasmodium dipeptidyl aminopeptidase allosteric inhibitors by high throughput screening” (PLoS ONE, 2019).
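Also: 30 min substrate incubation versus DMSO and 10 µM JCP410 controls.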

The target of the experiment is DPAP1 (Plasmodium falciparum, UniProt Q8IIJ9). Nature of the experiment: primary screen, percent inhibition; read by cleavage of a fluorogenic dipeptide substrate; higher = more effect of the substance. The arrangement: species or system P. falciparum D10 trophozoite lysates; single well.
DPAP1, sequence (Q8IIJ9 whole entry, looked up): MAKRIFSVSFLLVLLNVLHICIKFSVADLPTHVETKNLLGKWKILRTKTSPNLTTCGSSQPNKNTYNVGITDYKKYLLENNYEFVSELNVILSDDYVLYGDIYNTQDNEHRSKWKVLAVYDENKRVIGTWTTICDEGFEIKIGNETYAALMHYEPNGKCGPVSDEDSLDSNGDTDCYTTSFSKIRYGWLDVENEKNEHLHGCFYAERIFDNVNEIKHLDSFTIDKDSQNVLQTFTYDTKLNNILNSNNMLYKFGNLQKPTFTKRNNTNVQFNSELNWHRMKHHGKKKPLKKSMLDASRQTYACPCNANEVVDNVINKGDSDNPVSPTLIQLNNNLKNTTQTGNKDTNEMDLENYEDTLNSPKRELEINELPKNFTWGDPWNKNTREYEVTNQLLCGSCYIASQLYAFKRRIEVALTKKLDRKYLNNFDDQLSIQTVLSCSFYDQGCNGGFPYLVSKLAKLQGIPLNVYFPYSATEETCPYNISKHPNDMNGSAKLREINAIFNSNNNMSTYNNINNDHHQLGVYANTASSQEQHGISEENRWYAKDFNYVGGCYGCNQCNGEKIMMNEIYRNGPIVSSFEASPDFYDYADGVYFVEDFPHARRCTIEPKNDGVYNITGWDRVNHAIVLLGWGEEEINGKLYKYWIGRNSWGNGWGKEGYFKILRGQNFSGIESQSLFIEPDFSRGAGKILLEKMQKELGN
`c1ccc(CCc2nnc3c4c5c(sc4ncn23)CCCC5)cc1`: the “% Inhibition @ 10 uM” value was -0.85%.
On to `O=S(=O)(Nc1ccccc1Cl)c1ccc(F)cc1`, for which the “% Inhibition @ 10 uM” value came to 0.135%.
With `COc1ccc2[nH]c(SCC(O)c3ccc(Br)cc3)nc2c1` (stereo not drawn), the “% Inhibition @ 10 uM” value was 0.19%.
In the case of `CC(C)C(NS(=O)(=O)c1cccc2nsnc12)C(=O)NC1CCCCC1` (stereo not drawn) it was -2.25%.
Turning to `C=CCN1C(=O)C(CC(=O)NCC)S/C1=N\c1cccc2ccccc12` (stereo not drawn), the “% Inhibition @ 10 uM” value was 0.512%.
In the case of `CN(C)CCCN(C(=O)C1CCCCC1)c1nc2ccc(Br)cc2s1`, the “% Inhibition @ 10 uM” value came out at 0.745%.
Turning to `Cc1cc(C)c(S(=O)(=O)N(C)CC(=O)NCc2ccccn2)c(C)c1`, the “% Inhibition @ 10 uM” value is on record as -0.891%.
On to `O=C(NCc1ccco1)c1c(O)nnc(-c2ccccc2)c1-c1ccccc1`, for which the “% Inhibition @ 10 uM” value is 2.04%.
With `N#CC1=C(N)Oc2[nH]nc(-c3ccccc3)c2C12C(=O)Nc1ccc(Br)cc12` (stereo not drawn), the “% Inhibition @ 10 uM” value stood at 0.726%.
In the case of `CCOc1cccc2cc(C(=O)/C=C/c3ccc(SC)cc3)c(=O)oc12` it was 0.907%; in that of `O=C(NC1CCCC1)c1c(O)nc2ccccc2c1O`, -0.158%.
For `COc1ccc2nc(/N=C(\N)NC(=O)Cc3ccccc3)nc(C)c2c1`, the “% Inhibition @ 10 uM” value is -6.78%.
On to `Cc1ccc(Cl)cc1-n1c(C)cc(/C=C2\C(=N)N3N=C(S(C)(=O)=O)SC3=NC2=O)c1C`, for which the “% Inhibition @ 10 uM” value is on record as 8.11%.
Take `Cc1cc(-c2[nH]nc3c2C(c2cccnc2)C(C#N)=C(N)O3)c(C)s1` (stereo not drawn): the “% Inhibition @ 10 uM” value is reported as -4.12%.
On to `COc1cccc2c1Oc1nc(-c3ccc(OC)c(OC)c3OC)nc(S)c1C2`, for which the “% Inhibition @ 10 uM” value is listed as 5.61%.
In the case of `O=C(O)/C=C(\OCCO)C1(O)CCCCC1` it was -7.01%.
In the case of `CN(CCCNC(=O)c1cc(-c2cccnc2)nc2ccccc12)Cc1ccccc1` it was -0.0542%; in that of `c1ccc(-c2csc3ncnc(N4CCN(c5ccccn5)CC4)c23)cc1`, -3.49%.
For `COc1ccccc1NC(=O)c1c(NC(=O)c2ccco2)sc2c1CCC2`, the “% Inhibition @ 10 uM” value is given as -4.43%.
In the case of `c1sc2[n+](c1C13CC4CC(CC(C4)C1)C3)CCS2` it was 2.01%; in that of `Cn1ccnc1SCC(O)c1ccc2c(c1)OCO2` (stereo not drawn), -1.31%.
For the compound `O=C(CSc1n[nH]c(-c2ccccc2)n1)Nc1ccccn1`, the “% Inhibition @ 10 uM” value was found to be 4.97%.
In the case of `Cc1ccnc2nc(NC(=O)C(C)N3C(=O)c4ccccc4C3=O)nn12` (stereo not drawn), the “% Inhibition @ 10 uM” value was -4.91%.
For the compound `Cc1c(CNC(=O)c2cnn3c2NC(c2ccc(Br)cc2)CC3C(F)(F)F)cnn1C` (stereo not drawn), the “% Inhibition @ 10 uM” value was found to be 8.63%.
As for `Cc1ccc(-n2nc3c(N4CCC(C(=O)N5CCN(C)CC5)CC4)nnc(C)c3c2C)cc1`, the “% Inhibition @ 10 uM” value is given as -7.08%.
On to `COc1ccc(NCC(O)CN2C(=O)c3ccccc3C2=O)cc1` (stereo not drawn), for which the “% Inhibition @ 10 uM” value is 1.52%.
With `CCOC(=O)c1c(NC(=O)c2c(OC)cccc2OC)sc2c1CCC(C)C2` (stereo not drawn), the “% Inhibition @ 10 uM” value was 19.7%.
As for `O=C(O)c1ccc(NCc2cccc(Br)c2)cc1`, the “% Inhibition @ 10 uM” value is given as -0.0619%.
In the case of `COc1cc2nc3c(O)n(Cc4ccccc4Cl)cnc-3c2cc1OC` it was 3.24%.
`CN(C)CCN(Cc1ccccc1)C(=O)C1CCN(c2ncnc3c2nc2n3CCCCC2)CC1`: the “% Inhibition @ 10 uM” value is given as -5.56%.
In the case of `O=C(Cc1ccc(F)cc1)Nc1nc(-c2ccccc2)cs1`, the “% Inhibition @ 10 uM” value was found to be 0.931%.
Regarding `C=C(C)c1cccc(C(C)(C)NC(=O)NCc2ccc(OC)cc2)c1`, the “% Inhibition @ 10 uM” value was -3.96%.
In the case of `Cc1c2cnn(CC(=O)N3CC(C)CC(C)C3)c(=O)c2c(C)n1Cc1ccccc1F` (stereo not drawn) it was -7.72%; in that of `CCn1cc(CCC(=O)NCc2ccccc2C)c2ccccc21`, -6.19%.
For the compound `CC(CNC(=O)Cn1ncc2c3ccccc3n(C)c2c1=O)c1ccccc1` (stereo not drawn), the “% Inhibition @ 10 uM” value is on record as -11.3%.
In the case of `Cc1nn(-c2ccccc2)c2c1N(CC(=O)NC(C)C13CC4CC(CC(C4)C1)C3)C(=O)CS2` (stereo not drawn) it was -7.3%.
In the case of `O=c1oc2ccc([N+](=O)[O-])cc2cc1-c1nc(-c2ccc(Cl)c(Cl)c2)cs1` it was -4.21%; in that of `CC(CCc1ccccc1)NC(=O)Cn1ncc2c1-c1ccccc1OC2` (stereo not drawn), -2.42%; in that of `Cc1ccc(-n2ncc3c(N4CCCC4)ncnc32)cc1Cl`, 2.24%.
In the case of `CC(=O)c1c(NCCc2ccccc2)cc(C)oc1=O` it was 5.42%.
Regarding `CNC(=O)c1ccc(-n2c(C)nc3cccnc32)cc1`, the “% Inhibition @ 10 uM” value is -0.943%.
In the case of `COC(=O)Nc1cc(C)nc2ccccc12`, the “% Inhibition @ 10 uM” value is reported as -8.71%.
With `O=c1oc2ccccc2n1Cc1ccccc1Cl`, the “% Inhibition @ 10 uM” value is reported as -4.6%.
In the case of `CC(=O)c1ccc(NC(=O)CCc2ccccc2)cc1` it was -1.98%.
In the case of `O=C(NC1CCCCC1)c1nc2nc(-c3ccccc3)cc(C(F)(F)F)n2n1` it was 0.0035%.
In the case of `O=c1c2c(nc3n1CCS3)-c1ccccc1CC21CCCC1` it was 1.8%; in that of `CCOc1ccccc1C(=O)Nc1cc(C)on1`, -4.59%; in that of `COC(=O)c1sc(N2C(=O)c3oc4ccccc4c(=O)c3C2c2cccnc2)nc1C` (stereo not drawn), -2.92%.
For the compound `CN1CCN(c2nc3nonc3nc2N2CCN(C)CC2)CC1`, the “% Inhibition @ 10 uM” value is recorded as 9.21%.
For the compound `CCCC1=NN2C(=N)/C(=C/c3ccc(-c4ccccc4)o3)C(=O)N=C2S1`, the “% Inhibition @ 10 uM” value was 0.47%.
In the case of `Cc1nc2ccccc2n1CC(=O)NCCCn1ccnc1` it was -2.19%; in that of `Cc1ccc(NC(=O)Nc2nc3c(s2)CC(C)CC3)cc1` (stereo not drawn), 0.674% and 2.64%; in that of `CN1CCN(C(=O)C2CCN(S(=O)(=O)N3CCC4(CC3)OCCO4)CC2)CC1`, -4.83%.
In the case of `N#C/C(=C\c1cccc2ccccc12)c1nn(CCO)c(N)c1C#N` it was 22.6%; in that of `Cc1ccccc1C(=O)Nc1ccc(C#N)cc1`, -2.63%; in that of `O=S(=O)(c1ccc(F)cc1)N1CCC(Cc2ccccc2)CC1`, 8.31%.
In the case of `Cc1nnc(NC(=O)c2ccc(S(=O)(=O)N3CC(C)CC(C)C3)cc2)o1` (stereo not drawn) it was 2.84%; in that of `CC(=O)c1cccc(C(=O)N[C@@H](CC2CCCCC2)C(=O)NCC#N)c1`, -1.83%; in that of `Cc1ccc(O)c(C(=O)c2cnc3c(c2)COc2ccc(C)cc2-3)c1`, 0.889%.
On to `Nc1nc(COc2ccc(F)cc2)nc(N2CCCCC2)n1`, for which the “% Inhibition @ 10 uM” value worked out at 3.81%.
`Cc1cc(O)c(NC(=O)c2ccc3c(c2)OCCO3)cc1C`: the “% Inhibition @ 10 uM” value is -11.5%.
In the case of `CCN(CC)c1nc2c(-c3ccc(Cl)cc3)nnn2c2ccccc12` it was -1.21%; in that of `Cc1onc(-c2ccccc2)c1C(=O)N1N=C(C(F)F)CC1(O)C(F)F` (stereo not drawn), 2.08%; in that of `Cc1cc2nc(-c3cc(N)ccc3Cl)oc2cc1C`, 3.65%.
In the case of `CC1=C(C#N)C(C(F)(F)F)(C(F)(F)F)NC(c2ccc(C)cc2)=N1` it was -3.53%; in that of `O=c1c(-c2ccccc2)c(O)cc(-c2ccccc2)n1Cc1ccccc1`, 0.674%; in that of `COCCNC(=O)c1ccc(CSCc2cccc(Cl)c2)o1`, 2.35%.
In the case of `CCCCN1C(=O)C(Nc2nc3ccccc3s2)(C(F)(F)F)C2=C1CC(C)(C)CC2=O` (stereo not drawn) it was 1.91%; in that of `COC(=O)c1sc2ccccc2c1NC(=O)c1nc2ccccc2s1`, 4.67%; in that of `CSC1=NSC2=NC(=O)/C(=C\c3ccc(SCc4ccco4)o3)C(=N)N12`, 5.34%.
As for `Cc1cc(C(F)F)n2nc(C(=O)Nc3cc(Cl)ccc3O)nc2n1`, the “% Inhibition @ 10 uM” value is on record as -1.32%.
Turning to `COc1ccc(-c2nc3n(n2)C(c2cccs2)C(C(=O)Nc2cccnc2)=C(C)N3)cc1` (stereo not drawn), the “% Inhibition @ 10 uM” value was found to be 1.96%.
Turning to `COC(=O)c1c(NC(=O)Cn2nc(C(F)(F)F)c(Br)c2C)sc2c1CCCC2`, the “% Inhibition @ 10 uM” value was 8.94%.
In the case of `CCCN(CC1CC1)C1CCN(Cc2ccccc2)CC1` it was 3.68%.
In the case of `CN(C)C(=O)c1c(NC(=O)c2ccccc2F)sc2c1CCC(C(C)(C)C)C2` (stereo not drawn) it was -5.63%; in that of `O=C(CC1(O)C(=O)Nc2ccccc21)c1cccc(Br)c1` (stereo not drawn), -10.1%.
On to `COc1ccc(C2=N/C(=C\c3c(F)cccc3Cl)C(=O)O2)cc1`, for which the “% Inhibition @ 10 uM” value turned out to be 2.75%.
For the compound `COc1ccc(N(CC(=O)NC(C)(C)C)S(=O)(=O)c2ccc(C)cc2)c(OC)c1`, the “% Inhibition @ 10 uM” value is reported as -0.185%.
In the case of `COC(=O)C1=CN(C)C=C(C(=O)OC)C1c1ccc2c(c1)OCO2` it was -1.48%; in that of `CCN(Cc1ccccc1)S(=O)(=O)c1nnc(NC(=O)c2ccc(OC)c(OC)c2)s1`, -1.91%; in that of `CS(=O)(=O)N(CC(=O)N1CCc2ccccc2C1)c1cccc(Cl)c1Cl`, -5.54%.
Consider `O=C1N=C(N2CCOCC2)S/C1=C\c1ccc(Cl)cc1Cl`, for which the “% Inhibition @ 10 uM” value was found to be 3.53%.
`CN(CC(=O)NC1CCN(Cc2ccccc2)CC1)S(=O)(=O)c1ccc(Br)s1`: the “% Inhibition @ 10 uM” value is recorded as -2.56%.
As to `CC1=C(C(=O)Nc2ccc(F)cc2F)C(c2cccs2)C2=C(O)CCCC2=N1` (stereo not drawn), the “% Inhibition @ 10 uM” value was -1.64%.
In the case of `COc1ccc(CCNC(=O)CCc2c(C)nc3nc(CN)nn3c2C)cc1OC` it was -3.96%.
In the case of `Clc1ccc(Nc2nc(-c3ccc(Cl)c(Cl)c3)cs2)cc1` it was -9.97%; in that of `Cc1nn(-c2cc(Oc3ccccc3)ncn2)c(N)c1C#N`, -2.78%.
Regarding `CCCc1ccc(-c2ccc(C(=O)O)cc2)nc1`, the “% Inhibition @ 10 uM” value amounted to 0.132%.
In the case of `O=C(Cc1cccs1)Nc1noc2ccccc12` it was 0.569%; in that of `Cc1cc(C(F)(F)F)nn1Cc1ccc(C(=O)Nc2ncc(Br)s2)o1`, 3.94%.
In the case of `O=C(COc1ccc(Br)cc1)Nc1cc(Cl)ccc1Cl` it was 3.54%.
For the compound `CC1CCN(S(=O)(=O)c2ccc(NC(=O)c3cccc(NC(=O)c4ccccc4)c3)cc2)CC1`, the “% Inhibition @ 10 uM” value was 0.528%.
In the case of `CCC(=O)N1c2ccccc2N=C2CC(C)(C)CC(O)=C2C1c1ccc(F)cc1` (stereo not drawn) it was -0.736%; in that of `CC(C)CNC(CC(=O)O)c1ccccc1` (stereo not drawn), -0.834%.
In the case of `Cc1nc2cc(S(=O)(=O)N3CCC(C(=O)N(C)Cc4ccccc4)CC3)ccc2n1C1CCCC1` it was 3.24%; in that of `CCOc1cc(/C=C2/SC(=O)N(C(C)C)C2=O)cc(Cl)c1O`, -1.61%; in that of `CCN(CC)CCCNC(=O)CNC(=O)Cn1c(C)cc2ccccc2c1=O`, -3.78%.
On to `CCN(CC)C(=O)c1cc2ccccc2oc1=O`, for which the “% Inhibition @ 10 uM” value is reported as -2.32%.
In the case of `Cc1cc(C)c2nc(N3CCCC(C(=O)NCc4ccccc4)C3)sc2c1` (stereo not drawn) it was 0.137%.
